The whole screen tested about 310,000 compounds, of which about 2,200 (0.71%) showed an effect of 50% or more. The effect is printed as a negative number. This is one part of the list.

The target of this assay is human ether-à-go-go-related gene (hERG) potassium channel (human, UniProt Q12809). The experiment in a line: primary screen, population patch clamp on CHO cells stably expressing hERG.
Sequence of human ether-à-go-go-related gene (hERG) potassium channel (Q12809 whole entry, looked up): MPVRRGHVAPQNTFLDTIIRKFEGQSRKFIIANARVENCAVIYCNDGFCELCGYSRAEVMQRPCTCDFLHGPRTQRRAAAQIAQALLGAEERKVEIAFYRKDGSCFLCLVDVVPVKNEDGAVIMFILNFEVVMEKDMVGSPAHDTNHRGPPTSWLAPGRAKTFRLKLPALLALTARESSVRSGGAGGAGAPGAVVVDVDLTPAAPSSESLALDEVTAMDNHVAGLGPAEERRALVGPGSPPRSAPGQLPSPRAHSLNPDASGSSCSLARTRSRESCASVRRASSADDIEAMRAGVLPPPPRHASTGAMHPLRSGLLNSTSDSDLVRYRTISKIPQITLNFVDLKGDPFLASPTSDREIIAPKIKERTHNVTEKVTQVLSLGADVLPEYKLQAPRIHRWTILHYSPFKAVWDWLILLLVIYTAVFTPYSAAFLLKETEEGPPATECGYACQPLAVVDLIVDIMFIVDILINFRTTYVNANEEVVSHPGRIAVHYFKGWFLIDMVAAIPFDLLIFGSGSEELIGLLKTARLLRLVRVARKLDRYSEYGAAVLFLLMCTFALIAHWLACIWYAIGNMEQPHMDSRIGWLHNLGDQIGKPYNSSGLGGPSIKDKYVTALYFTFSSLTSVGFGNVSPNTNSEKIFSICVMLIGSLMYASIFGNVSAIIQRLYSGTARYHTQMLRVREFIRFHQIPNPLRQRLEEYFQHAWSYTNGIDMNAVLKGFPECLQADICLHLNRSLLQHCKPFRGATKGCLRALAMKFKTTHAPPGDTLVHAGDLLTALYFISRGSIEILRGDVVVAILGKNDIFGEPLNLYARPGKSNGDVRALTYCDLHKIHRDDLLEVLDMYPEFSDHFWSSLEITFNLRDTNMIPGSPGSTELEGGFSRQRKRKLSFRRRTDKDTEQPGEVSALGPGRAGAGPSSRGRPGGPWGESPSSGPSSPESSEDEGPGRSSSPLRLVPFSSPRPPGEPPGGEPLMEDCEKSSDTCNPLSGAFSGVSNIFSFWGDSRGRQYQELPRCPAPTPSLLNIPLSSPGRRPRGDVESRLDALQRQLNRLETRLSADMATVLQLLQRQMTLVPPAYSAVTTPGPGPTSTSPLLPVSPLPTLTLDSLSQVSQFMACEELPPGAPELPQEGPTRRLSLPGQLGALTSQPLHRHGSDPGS
Regarding `CCN1CCC(N(C)C2CCCCC2)CC1`, the “hERG current change (%, negative = inhibition) at 1uM” value is given as 7.09%.

Consider `Cc1ccc(C(=O)Nc2ccc(O)cc2C(=O)O)cc1`, for which the “hERG current change (%, negative = inhibition) at 1uM” value amounted to 19.6%.

`Cc1cc(Cn2ccnc2)c(C)cc1Cn1ccnc1`: the “hERG current change (%, negative = inhibition) at 1uM” value is on record as 3.61%.

Consider `CC(C)(C)NC(=O)Cn1nnc(-c2ccc(S(C)(=O)=O)cc2)n1`, for which the “hERG current change (%, negative = inhibition) at 1uM” value was -1.92%.

With `CCCNC(=O)C1CCC(CNS(=O)(=O)c2cccc3nsnc23)CC1` (stereo not drawn), the “hERG current change (%, negative = inhibition) at 1uM” value is on record as 16.5%.

Regarding `Cc1onc(-c2c(F)cccc2Cl)c1C(=O)NC1CCSC1=O` (stereo not drawn), the “hERG current change (%, negative = inhibition) at 1uM” value is listed as 6.78%.

`CC(C)(C)C(=O)NC1=NCCS1`: the “hERG current change (%, negative = inhibition) at 1uM” value was 9.65%.

Turning to `O=C(/C=C(\O)c1ccc(Cl)cc1)C(=O)NNC(=O)C(O)(c1ccccc1)c1ccccc1`, the “hERG current change (%, negative = inhibition) at 1uM” value is reported as -0.849%.

On to `CC#CCCCC(=O)Nc1cccc(C(=O)O)c1`, for which the “hERG current change (%, negative = inhibition) at 1uM” value was 14.7%.

Regarding `CCn1c(=O)c2ccccc2n(Cc2cccc(C)c2)c1=O`, the “hERG current change (%, negative = inhibition) at 1uM” value is 15.6%.

Regarding `CC1Cc2ccccc2N1Cc1cccc(S(=O)(=O)N(C)C)c1` (stereo not drawn), the “hERG current change (%, negative = inhibition) at 1uM” value came out at 6.58%.

For `Cc1ccc(C2(C(=O)N3CCC(n4nc(-c5ccccc5)oc4=O)CC3)CC2)cc1`, the “hERG current change (%, negative = inhibition) at 1uM” value stood at 4.96%.

Regarding `COc1ccc(C2(CNC(=O)c3ccc(OC)c([N+](=O)[O-])c3)CCOCC2)cc1OC`, the “hERG current change (%, negative = inhibition) at 1uM” value stood at 4.5%.

As to `c1ccc2c(-c3[nH]ncc3CNCCCn3ncc4ccccc43)cccc2c1`, the “hERG current change (%, negative = inhibition) at 1uM” value is on record as 5.16%.

`Cc1cc(-c2nnnn2-c2ccc(F)cc2)no1`: the “hERG current change (%, negative = inhibition) at 1uM” value turned out to be 12.2%.

Regarding `CCCCn1nc(C(=O)N(CC)CC(=O)Nc2c(F)cccc2F)c2ccccc2c1=O`, the “hERG current change (%, negative = inhibition) at 1uM” value was 3.53%.

For `O=c1[nH]c(/C=C/c2ccccc2[N+](=O)[O-])nc2ccccc12`, the “hERG current change (%, negative = inhibition) at 1uM” value is 1.73%.

As to `CC1CCC(NC(=O)COC(=O)C2CC3CCCC(C2)C3=O)CC1` (stereo not drawn), the “hERG current change (%, negative = inhibition) at 1uM” value was determined as 3.94%.

For `O=C(O)CSC1c2ccccc2C(=O)N1c1ccccc1` (stereo not drawn), the “hERG current change (%, negative = inhibition) at 1uM” value is given as 9.95%.

For the molecule `Cc1ccc(N=Cc2cc3c(cc2[N+](=O)[O-])OCO3)cc1[N+](=O)[O-]`, the “hERG current change (%, negative = inhibition) at 1uM” value is listed as 16.4%.

With `Cc1ccc(C)c(OCCC(=O)OCC(=O)Nc2cccnc2Cl)c1`, the “hERG current change (%, negative = inhibition) at 1uM” value came out at 17.8%.

Consider `Cc1ccc(NC(/C=C/N(C)C)=C/C(=O)C(F)(F)F)c(C)c1`, for which the “hERG current change (%, negative = inhibition) at 1uM” value is recorded as -5.03%.

Regarding `CCN(c1ccccc1)c1nc(C#N)nc(N(CC)c2ccccc2)n1`, the “hERG current change (%, negative = inhibition) at 1uM” value was found to be 3.83%.

For `CCOC(=O)N1CCN(C(=O)c2cc(COc3c(F)cccc3F)on2)CC1`, the “hERG current change (%, negative = inhibition) at 1uM” value was -15.7%.

As to `COc1ccc(OC)c(Cc2nnc(CCC(=O)NCc3nc4ccccc4s3)o2)c1`, the “hERG current change (%, negative = inhibition) at 1uM” value turned out to be 8.8%.

`O=C(O)c1cccc(Oc2cccc(Cl)n2)c1`: the “hERG current change (%, negative = inhibition) at 1uM” value is 6.45%.

In the case of `Cc1cc(NC(=O)c2cccc(Oc3ccccc3)c2)n[nH]1`, the “hERG current change (%, negative = inhibition) at 1uM” value turned out to be 14.8%.

Regarding `COc1ccccc1NC(=O)Nc1nn(C)c2cccc(N(C)C)c12`, the “hERG current change (%, negative = inhibition) at 1uM” value amounted to 12%.

On to `COc1ccc(NCc2nnc(SCC(=O)Nc3cc(C(F)(F)F)ccc3Cl)o2)cc1`, for which the “hERG current change (%, negative = inhibition) at 1uM” value was found to be 14%.

Turning to `CC(OC(=O)c1ccc(NS(=O)(=O)c2cccs2)cc1)C(=O)N(C)C1CCCCC1` (stereo not drawn), the “hERG current change (%, negative = inhibition) at 1uM” value is reported as 7.67%.

`COc1ccc(N2C(=O)CC(N3CCN(Cc4ccc5c(c4)OCO5)CC3)C2=O)cc1` (stereo not drawn): the “hERG current change (%, negative = inhibition) at 1uM” value is on record as 17%.

`CCC(C)NCCCOc1ccc([N+](=O)[O-])cc1.O=C(O)C(=O)O` (stereo not drawn): the “hERG current change (%, negative = inhibition) at 1uM” value is given as -73.7%.

For `CCCOc1ccc(CNC(=O)CCC(=O)n2ncc3cc(C)ccc32)cc1`, the “hERG current change (%, negative = inhibition) at 1uM” value worked out at 16.2%.

For `Cc1cccc(NC(=O)c2cccc(S(=O)(=O)N3CCc4ccccc4C3)c2)n1`, the “hERG current change (%, negative = inhibition) at 1uM” value came out at 23.8%.

Regarding `CC(CCCC(C)(C)O)NCCO` (stereo not drawn), the “hERG current change (%, negative = inhibition) at 1uM” value was 7.66%.

Consider `COc1ccccc1N1CCN(C(=O)CSc2nc3ccccc3[nH]2)CC1`, for which the “hERG current change (%, negative = inhibition) at 1uM” value was found to be 6.33%.

Consider `COC(=O)c1ccc(NC(=S)NC(=O)c2cc(-c3ccccc3)nc3ccccc23)cc1`, for which the “hERG current change (%, negative = inhibition) at 1uM” value is listed as 9.36%.

`C[C@H](NC(=O)c1[nH]cnc1C(=O)Nc1cccc(Cl)c1)c1ccccc1`: the “hERG current change (%, negative = inhibition) at 1uM” value was 15.2%.

On to `O=C(C1CCN(S(=O)(=O)c2cccs2)CC1)N1CCCCCC1`, for which the “hERG current change (%, negative = inhibition) at 1uM” value is recorded as -8.5%.

On to `CCOc1ccc(CN(C)c2ccc(S(=O)(=O)N3CCN(C)CC3)cc2[N+](=O)[O-])cc1OC`, for which the “hERG current change (%, negative = inhibition) at 1uM” value was found to be 9.49%.

On to `C=CCn1c(CCNC(=O)c2cccs2)nnc1SCC(=O)c1cccc([N+](=O)[O-])c1`, for which the “hERG current change (%, negative = inhibition) at 1uM” value is given as -0.426%.

In the case of `CN(C)CCn1c2c(c(SCC(=O)N3CCc4ccccc43)nc1=O)CCCC2`, the “hERG current change (%, negative = inhibition) at 1uM” value is -6.68%.

For `O=C1Nc2ccccc2/C1=C/C(=O)c1cccs1`, the “hERG current change (%, negative = inhibition) at 1uM” value is 8.18%.

In the case of `COCCNC(=O)/C(C#N)=C/c1ccc(N2CCOCC2)o1`, the “hERG current change (%, negative = inhibition) at 1uM” value is on record as 5.25%.

Take `CCC(=Nc1cc(OC)ccc1OC)c1c(O)[nH]c(=O)[nH]c1=O`: the “hERG current change (%, negative = inhibition) at 1uM” value is given as 5.53%.

For `COc1cccc(CNC(=O)Cc2ccc(NC(=O)C3=C(C)OCCS3)cc2)c1`, the “hERG current change (%, negative = inhibition) at 1uM” value came out at 9.76%.

For `O=c1[nH]c(CSc2nnc(-c3ccccc3)n2-c2ccccc2)nc2ccccc12`, the “hERG current change (%, negative = inhibition) at 1uM” value worked out at 12%.

Take `NC(=O)c1ccsc1NC(=O)COC(=O)Cc1c[nH]c2ccccc12`: the “hERG current change (%, negative = inhibition) at 1uM” value is on record as 8.82%.

Consider `O=C(NC(CC(=O)N1CCCC(C(F)(F)F)C1)c1ccccc1)c1ccccc1Cl` (stereo not drawn), for which the “hERG current change (%, negative = inhibition) at 1uM” value is on record as 8.72%.

In the case of `O=Cc1cn(Cc2ccc([N+](=O)[O-])cc2)c2ccccc12`, the “hERG current change (%, negative = inhibition) at 1uM” value is 5.49%.

For the molecule `CC(=O)NC(Cc1ccccc1F)C(=O)NC1CCN(C(=O)c2cnccn2)CC1` (stereo not drawn), the “hERG current change (%, negative = inhibition) at 1uM” value is 0.513%.

Regarding `CCCN(CCC)CCCNC(=O)CCNS(=O)(=O)c1ccc(Br)cc1`, the “hERG current change (%, negative = inhibition) at 1uM” value came out at 0.507%.

In the case of `CCOC(=O)c1sc(NC(=O)c2ccc(OC(C)=O)cc2)nc1C`, the “hERG current change (%, negative = inhibition) at 1uM” value was found to be 3.02%.

Take `CC(Sc1nnnn1C)C(=O)Nc1ccc2c(c1)OCCO2` (stereo not drawn): the “hERG current change (%, negative = inhibition) at 1uM” value is recorded as -4.01%.

In the case of `CCC1(C)Cc2ccccc2C(=S)N1` (stereo not drawn), the “hERG current change (%, negative = inhibition) at 1uM” value is listed as 12%.

Turning to `Cc1ccc(NC(=O)N2CCCC2C(=O)NCc2ccc3c(c2)OCO3)cc1` (stereo not drawn), the “hERG current change (%, negative = inhibition) at 1uM” value is on record as 9.11%.

Take `COc1ccc(N=C2C(=O)Nc3c(C)cccc32)cc1`: the “hERG current change (%, negative = inhibition) at 1uM” value was 8.86%.
